Measured values as given in the supplement of paper PMC11417369.
Some of the results follow.

These sequences were tested on PfHDP1 homeodomain (GST-tagged) (assay: gcPBM binding intensity (ln(normalized median fluorescence intensity)); higher = stronger DNA binding).
Method in brief: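 Binding intensity is defined as the maximum Masliner-normalised natural-log median intensity across replicate spots for either probe orientation. It was measured on an Agilent 4 × 180k array of primer-extended double-stranded 36-bp intergenic genomic probes and negative controls, to which GST-tagged P. falciparum DNA-binding domains made in E. coli were applied for 1 h in 1× PBS with 1% milk, 0.2 mg/ml BSA, 0.5% salmon testes DNA and 0.03% Triton X-100. Detection was by Alexa488 anti-GST antibody and scanning at 488 nm.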

Point of comparison: “TATGCTACAAGGAGAACACACAATTGCCACTTTTGG [CACACA_site2166]”, “gcPBM binding intensity (ln)” value 6.44. Against it:
- ATAAACAAACATAAATCTGATTTTAATTTTTTTAAG [CACACA_negctrl_site313] — lower, 5.81
- TAGGTAAATGCAAATTGGTTTAAATCAAAATATAAA [XGTACX_negctrl_site250] — higher, 7.27
- TTTATTATTTTAACGTGTACAAGGTATATAATATTC [XGTACX_site5241] — higher, 6.67
- TGATATTATATATATACACACATGTATGTATTTATA [CACACA_site4874] — higher, 6.56
- GTATCAAAAGAATACACACACACATACAGATATATA [CACACA_site5975] — higher, 6.89
- TTGTAATTATTAAACACACACAAAATATATATAATA [CACACA_site2523] — higher, 7.04
- AGGTGAGCTCAGACTACACACACAAAGAAAAAAATA [CACACA_site8439] — higher, 6.79
- CCATAAAAATATAATACACACATATATATTAACATA [CACACA_site4102] — higher, 6.62
- AAAAAAAAAAAAAACACACACATACAGACAAAAATG [CACACA_site83] — higher, 6.89
- CTAAATTATAGATCAGTGCAATTTAATATGAGTCCA — higher, 8.76
- TGCGTATATATATACACACACATATATATATTTTAA [CACACA_site1952] — higher, 6.76
- TGTTTTTAAAAAAAAAAAAAATCACACCGGCAGGTA [CACACA_negctrl_site1437] — lower, 5.9
- TATTTCATTAATGTCACTTTGAAAGAAATGAAAAAA [CACACA_negctrl_site1803] — the same, 6.44
- AAAAAAAAAAGACACACACACAAAATAAACAAACAA [CACACA_site7308] — higher, 6.92
- CATATTATTCTTTTCACACACGCGTTAATAATAATC [CACACA_site3931] — higher, 7.32
- TATTGACATATATTAGTGCAATAATGAAATCAAGTA — higher, 10
- TATATATGTATCAAGTGTACAGTTTTAAAAAAAAAA [XGTACX_site6011] — higher, 7.05
- ATACATCGTATATAAGTGCATATTAAGGTCTTAAGA [GTGCAC_site9560] — higher, 8.69
- GAACATTTGAAATATGCACACATGTATAAACATACA [CACACA_site5463] — higher, 9.88
- ACACACAATACAAAAGTGCATATAATAATTAATCAT — higher, 7.77
- GTGTTGAATTATGTGCTTTTTTCTTTCTACTCAGTA [XGTACX_negctrl_site464] — higher, 7.24
- TTTTTTTGCCATATTACACACACACGGGTAAACCCC [CACACA_site6874] — higher, 6.92
- TAAATTTTTATTTGTAGTACTATATATATATATATA [XGTACX_site1026] — higher, 9.21
- TTTAATATAACTATTTGTACATAAAGAATATAAATA [XGTACX_site4594] — lower, 6.3
- TAATGAAAATATATAACACACAAAAGTTATAAATAT [CACACA_site1189] — lower, 6.43
- CTACATAAAAAAATATGTACATATATATATATATAT [XGTACX_site667] — higher, 9.15
- TTATCGACCAATAAAGCATGCAAAAAAAAAAAAAAA [TGCATGCA_site788] — higher, 6.46
- AAGAGAAAAAGAATGAAAGAAAAAAAAAAAAAATAT [CACACA_negctrl_site1527] — lower, 6.33
- CCCACAGACAAAAACACACACAAAGGTGTTCTTATA [CACACA_site4840] — lower, 6.37
- TTTTTAAAGGTGATAAAACACACGATTTAGAAATGT [CACACA_site3160] — lower, 6.36
- TCTATTAATTAATATACACACATTATGTATATATAT [CACACA_site2541] — higher, 6.81
- TTTCATTAATCTAATAGTACAGAAAATTGAGAAAAA [XGTACX_site8395] — higher, 6.66
- GTATACAAACATATAAATATAAATGTATTATTTGTT [CACACA_negctrl_site756] — lower, 6.09
- TCGTGCATAAATCATACACACACACCGATATATATA [CACACA_site8767] — higher, 9.94
- TCACAATTTTTTAGTACACACATATAAATATATAAA [CACACA_site1537] — higher, 6.64
- AAAAAAAAAAAAAACGCACACATTTTTACAATTCTA [CACACA_site3271] — higher, 6.94
- TTTGTATCCTTTTTGACATGCAACCATTCGGGTACA [TGCATGCA_site506] — higher, 6.63
- AAAAAATTGACTAATGCACACAATTACAGATATATA [CACACA_site5010] — higher, 9.85
- ACTTTAACCTGAACGGTGCATAAAATTTTGGCATTA — higher, 9.67
- AAAGATAAAAAAAGTACACACACACCGATATATATA [CACACA_site9006] — higher, 7.18
- CACGAACACAAACACAAACACACATCATATATATAT [CACACA_site1322] — higher, 8.56
- AATATATATAAAAAGGGAAAAATATATAAATAGATA [XGTACX_negctrl_site52] — lower, 6.4
- CATAATATGACATACACACACAAAAAAAAAAAAATA [CACACA_site1285] — lower, 6.32
- AACCGGGCCTAAGATGTAATGCCTTAGCCTATAAAA [CACACA_negctrl_site479] — lower, 5.57
- TTTATATTAAAATATTGTACGGACATTATTTTGTAA [XGTACX_site8128] — lower, 6.3
- ATAAAATATATGAAGACACACATAACATCATATTTT [CACACA_site3144] — lower, 6.18
- TTTGTTGTTTGGAGATGTACATATTTTACACTTTTT [XGTACX_site5965] — higher, 6.93
- AAAAAATTAATAAAAACACACAAAAAAAATAAACAA [CACACA_site1907] — higher, 6.94
- ATTTCACAGAGACACACACACAATATATTTCCTTTT [CACACA_site7773] — higher, 7.08
- TAAACATAATATTTAACACACATGAAGATGTATATT [CACACA_site1036] — lower, 5.97
- ATAAATATTTACAAAAGTACACATAACTTTAGATAT [XGTACX_site1685] — lower, 6.28
- ACAATCCACAGGGGCGCACACATATAAGCAGTATAT [CACACA_site3817] — higher, 6.86
- CACCATGATACATACACACAGACATATACGCATTCA [CACACA_site1008] — higher, 6.87
- GTTTTGGCTAACTATTCACACATTAAAATATTACCA [CACACA_site5016] — higher, 6.73
- AACCATTATTTCTCTACACACATTTATGTCATTTAC [CACACA_site1499] — higher, 7.04
- AAAATTAGGTATATATGTACATATATAAATATATAT [XGTACX_site3555] — higher, 6.8
